Over roughly 110,000 compounds, “z-score” has its median near -0.1; the highest 2% begin near 2. The list shows a part of the results. Residues, ends and D or L forms follow the SMILES beside them. *: point of attachment. PhAc = O=C(Cc1ccccc1)*; OBn = c1ccc(CO*)cc1
Target: Metabotropic glutamate receptor 8 (Rattus norvegicus) (UniProt P70579)
Assay: rat mGluR8 modulators via GIRK flux, primary screen, cell-based, thallium flux, HTS (AID 488969)
Conditions: HEK293 rat mGluR8, GIRK (G protein-gated inwardly rectifying potassium channel) thallium flux, FluoZin2; at 10 µM; stronger effect = higher value; submaximal glutamate (EC20) added with thallium

UniProt P70579, sequence (P70579 whole entry, looked up): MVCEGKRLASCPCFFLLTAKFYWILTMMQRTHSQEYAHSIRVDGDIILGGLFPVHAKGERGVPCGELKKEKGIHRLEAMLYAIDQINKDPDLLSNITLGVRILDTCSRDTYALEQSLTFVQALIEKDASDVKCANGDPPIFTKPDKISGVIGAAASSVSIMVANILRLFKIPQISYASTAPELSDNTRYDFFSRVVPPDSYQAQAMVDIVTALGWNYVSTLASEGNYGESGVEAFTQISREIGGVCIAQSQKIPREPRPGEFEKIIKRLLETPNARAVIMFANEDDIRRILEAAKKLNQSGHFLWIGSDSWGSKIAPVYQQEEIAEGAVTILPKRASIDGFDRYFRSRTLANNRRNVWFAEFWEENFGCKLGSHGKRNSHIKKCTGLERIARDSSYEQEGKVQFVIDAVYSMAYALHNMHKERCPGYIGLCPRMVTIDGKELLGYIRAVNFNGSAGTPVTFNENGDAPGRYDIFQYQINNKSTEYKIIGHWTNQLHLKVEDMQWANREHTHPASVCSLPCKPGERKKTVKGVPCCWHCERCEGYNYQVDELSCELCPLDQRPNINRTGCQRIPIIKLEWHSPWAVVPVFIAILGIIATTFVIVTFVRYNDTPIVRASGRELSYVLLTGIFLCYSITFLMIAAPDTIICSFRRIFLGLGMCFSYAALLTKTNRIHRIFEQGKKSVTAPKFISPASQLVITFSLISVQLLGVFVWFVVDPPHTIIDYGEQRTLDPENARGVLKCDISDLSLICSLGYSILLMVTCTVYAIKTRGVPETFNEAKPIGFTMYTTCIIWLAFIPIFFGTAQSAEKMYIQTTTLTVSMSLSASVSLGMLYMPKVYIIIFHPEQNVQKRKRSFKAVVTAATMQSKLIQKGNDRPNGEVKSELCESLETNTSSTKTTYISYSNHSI

Structure (SMILES)	z-score
OC(COc1ccc(OCc2ccccc2)cc1)CN1CCOCC1 (stereo unspecified)	-0.0779
CCCn1c(SCC(=O)Nc2nc3ccccc3s2)nc2c1c(=O)n(C)c(=O)n2C	-1.19
N#CC1(c2ccc(NC(=O)c3ccccc3)cc2)CCCC1	-0.494
O=C(CNC(=O)Cc1ccccc1)NCC(=O)OCc1ccccc1 (PhAc-Gly-Gly-OBn)	-0.213
CC(=O)N1CCc2cc(S(=O)(=O)CCC(=O)Nc3ccc4c(c3)OCCO4)ccc21	0.183
COC(=O)c1ccc(NC(=O)CC2C(=O)N(c3ccc(C)cc3)C(=O)N2CC(C)C)cc1 (stereo unspecified)	0.297
Nc1nc(CN2CCN(c3cccc(Cl)c3)CC2)nc(N2CCCc3ccccc32)n1	-0.167
O=C(O)c1cccc(N2C(=O)C3CC=CCC3C2=O)c1 (stereo unspecified)	0.223
O=C(NCc1cccc(C(F)(F)F)c1)c1cc(Cl)cc(Cl)c1	-0.1
Cc1cc(C)cc(N2C(=O)CC(n3nc(C)cc3C)C2=O)c1 (stereo unspecified)	-0.125
COc1ccc(C(=S)N(C)C)cc1OC	0.735
COC(=O)c1c(N)nc(C)n1-c1ccc(OC)cc1	0.698
CCSCCNC(=O)c1cncc(Br)c1	-0.0461
O=C(CSc1nc2ccccc2o1)N1c2ccccc2Sc2ccc(C(F)(F)F)cc21	-0.31
Cc1ccc(C(=O)CSc2cc(C)nc(SCC(=O)c3ccccc3)n2)cc1	-0.324
O=C(Cn1c(=O)sc2ccccc21)Nc1ccc2c(c1)OCCO2	-0.0557
CCOC(=O)N1CCN(C(=S)NC2CCCCC2)CC1	-0.473
CCCCc1ccc(NC(=O)C2CCN(S(C)(=O)=O)CC2)cc1	1.45
O=C(Oc1ccc2c(c1)OCO2)c1ccc(F)cc1Cl	0.248
O=C(CN1C(=O)c2ccccc2S1(=O)=O)NCc1ccc2c(c1)OCO2	-0.00977
O=C1NC(=O)/C(=C/c2ccccc2Oc2ccc(Cl)cc2)S1	-0.292
O=C1NC(=O)c2cc(NC(=O)C3CCCO3)ccc21 (stereo unspecified)	-0.127
O=C(NCc1cccnc1)C1COc2ccccc2O1 (stereo unspecified)	0.496

Structure (SMILES)	z-score
COC(=O)CSc1nnc(-c2ccccc2OC)n1-c1ccc(C)cc1	-0.487
Cc1ccccc1-c1nc(CS(=O)CC(=O)NCCN2CCN(Cc3ccccc3)CC2)c(C)o1 (stereo unspecified)	0.361
CCn1c(NC)cc(=O)n(C)c1=O	-0.2
CCCCn1c(SCC(=O)N2CCC(C)CC2)nc2ccsc2c1=O	-1.86
Cc1ccc(C(=O)NNC(=O)c2cc3cc4ccccc4nc3s2)cc1	0.506
CCCC(=O)Nc1sc(C)c(-c2ccc(OC)cc2)c1C#N	0.0161
O=C(NNS(=O)(=O)c1ccc(Cl)cc1)c1ccc(S(=O)(=O)N2CCCCC2)cc1	-0.21
N#Cc1ncc(C(F)(F)F)cc1Sc1ccc(N)cc1	-0.135
O=C(Cn1cnc2c(cnn2-c2ccccc2)c1=O)NC1CCCC1	-0.51
CC(C)N(Cc1nc(-c2ccc(Cl)cc2)no1)C(=O)c1cccs1	-0.512
Cc1cc(NC(=O)c2cc3ncc(Br)cn3n2)no1	-0.255
Clc1ccccc1/C=N/c1cc(-c2ccccc2)nn1-c1ccccc1	0.273
O=C(NCc1ccc(Cl)c(Cl)c1)c1ccco1	0.43
O=C(CNC(=O)c1ccccc1F)NCCOc1cccc(Cl)c1Cl	-0.0129
COCCCN1C(=O)C(O)=C(C(C)=O)C1c1ccccn1 (stereo unspecified)	0.108
COc1ccc(Cl)cc1C(=O)Nn1c(C)nc2ccccc2c1=O	-0.165
CCN(CC)S(=O)(=O)c1cccc(C(=O)OCC(=O)N2CC(=O)Nc3ccccc32)c1	-0.314
COc1ccc(OC)c(NC(=O)C2CCCC2)c1	-0.342
Cc1cnn(-c2cc(N/N=C/c3ccccc3F)ncn2)c1	-0.102
COCC(C)n1c(C)cc(C(=O)CSc2nnc(Nc3ccccc3F)s2)c1C (stereo unspecified)	-0.418
N/C(=N\OC(=O)C1CCCCC1)c1cccc([N+](=O)[O-])c1	-0.396
Cc1ccc2c(c1)[C@@H]1CN(C)CC[C@@H]1N2S(=O)(=O)c1ccc(F)cc1	-0.232
CCOC(=O)c1c(N2C(=O)C=CC2=O)sc(C)c1C	0.0123

Structure (SMILES)	z-score
Cc1ccc(C2CC(=O)N(c3ccc(F)cc3)C3=C2C(=O)CCC3)cc1 (stereo unspecified)	0.0688
O=C1c2cccc3cccc(c23)C(=O)N1CCN1CCN(C(=S)Nc2ccc(Cl)cc2)CC1	0.217
CC(C)(C)c1cc(C(=O)N/N=C/c2ccc(O)cc2)n(-c2ccccc2)n1	-0.0407
CC(=O)NC1C(=O)N=C(SCc2ccccc2)NC1=O (stereo unspecified)	-0.559
COc1ccc(O)c(C(=O)c2cnc3c(c2)c(=O)[nH]c(=O)n3C)c1	-0.107
Cn1nnnc1SCC(=O)N1CCN(Cc2ccccc2)CC1	-0.0959
O=C(OCc1cc(=O)n2cc(Br)ccc2n1)c1ccc(Cl)c(S(=O)(=O)NCc2ccccc2)c1	-0.182
CCOC(=O)c1c(C)[nH]c(C(=O)COC(=O)C2(C)CC2(Cl)Cl)c1C (stereo unspecified)	-0.344
COc1cc(NC(=S)NNC(=O)CC(C)C)c(OC)cc1Cl	-0.155
O=c1oc(-c2ccccc2)nc2c1C1(CCCCC1)Cc1ccccc1-2	0.889
O=C(Nc1ccc2c(c1)OCCO2)C1CCC1	0.045
COc1ccc(C(c2sc3nc(C)nn3c2O)N2CCCCC2)cc1 (stereo unspecified)	-0.138
CCc1nc(N2CCCC2)c(C#N)c2c1CCCC2	-0.517
COc1cc(C(=O)Nc2nnc(-c3sccc3C)s2)cc(OC)c1OC	1.51
COc1ccc(NC(=O)CSc2nncn2C)c([N+](=O)[O-])c1	0.0754
N#Cc1c(/N=C/c2ccco2)sc2c1CCCCC2	0.423
CCOC(=O)CN=C1CC(C)(C)CC2=C1Sc1ncnc(N(C)C)c1N2	-0.302
COC(=O)c1c(-c2ccncc2)csc1NC(=O)c1ccoc1C	-0.683
CCCC(=O)c1ccc2c(c1)OCCO2	-0.255
CCn1c(CC(=O)Nc2ccc(C)c(Cl)c2)nnc1SCC(=O)Nc1nc(C)cs1	0.176
Cn1nnnc1SC(C(=O)Nc1cccc(C(F)(F)F)c1)c1ccccc1 (stereo unspecified)	-0.391
CCc1ccc2c(c1)CCCN2C(=O)c1ccccc1C(=O)O	0.00689
Cc1ccc(-n2c(C)cc(C(=O)COC(=O)c3ccc[nH]c3=O)c2C)cc1	-0.0945

Structure (SMILES)	z-score
CCNc1nc(OCCNS(=O)(=O)c2cc(C)ccc2C)nc(N(C)C)n1	-0.0683
O=C1CCCN1CCC1CCN(C2CC(=O)N(c3ccc(Cl)cc3)C2=O)CC1 (stereo unspecified)	0.127
CCN(CC)c1ccc(NC(=O)Nc2ccccc2C(F)(F)F)cc1	-0.133
Cc1ccc2c(CN3CCC(C)CC3)cc(=O)oc2c1	-0.214
COC(=O)N/N=C\C=C\c1ccc2c(c1)OCO2	-0.0578
COC(=O)c1ccc(C)c(NC(=O)CN(c2cc(OC)ccc2OC)S(C)(=O)=O)c1	-0.157
Brc1ccc(-c2nnc3ccc(N4CCN(c5ccccc5)CC4)nn23)cc1	-0.123
OC1C2(Cc3ccccc3)CN3CCN(C2)CC1(Cc1ccccc1)C3 (stereo unspecified)	-0.264
Cc1ccc2nc(CSc3nnc(-c4ccco4)n3-c3ccccc3)cc(=O)n2c1	-1.34
Cc1nc(NC(=O)c2ccccc2)sc1-c1csc(Nc2ccc(Cl)cc2)n1	-0.0853
Cc1ccccc1N(CC(=O)N/N=C/c1ccccc1Cl)C(=O)c1ccccc1	-0.0818
COc1cccc(/C=N/n2c(SC)nnc2-c2ccccc2)c1OC	-1.13
CCOc1ccc(OCC)c(NC(=O)C2CCCN(S(=O)(=O)c3c(C)n[nH]c3C)C2)c1 (stereo unspecified)	-0.342
O=C(Nc1cccc(Br)c1)/C(=C\c1cccnc1)NC(=O)c1ccco1	0.224
CC(C)c1ccc(-n2cccc2/C=C2/C(=N)N3C=CSC3=NC2=O)cc1	2.17
Cc1cccc(OCc2nnc(N)s2)c1	-0.235
N#CNC(=Nc1cccc(F)c1)SCc1ccccc1F	-0.112
CCOC(=O)C1CCCCN1Cc1ccc(C(F)(F)F)cc1 (stereo unspecified)	-0.136
C=CCn1c(C)cc(C(=O)CSc2nnc(NC(C)C)s2)c1C	-0.18
C/C=C/C(=O)Nc1ccccc1Br	1.01
CCCC(=O)N1CCc2cc(OC)c(OC)cc2C1c1cc2cc3c(cc2[nH]c1=O)OCO3 (stereo unspecified)	-0.29
CCCCCOc1ccc(CSc2ncn[nH]2)cc1	-0.179
O=C(Nc1ccc(S(=O)(=O)N2CCCc3ccccc32)cc1)C1CCCO1 (stereo unspecified)	-0.218

Structure (SMILES)	z-score
O=C(NCCCN1CCOCC1)c1cccs1	0.402
COc1ccc(CCN(C(=O)C(F)(F)F)C(C(=O)NC2CCCCC2)c2ccc(C)s2)cc1OC (stereo unspecified)	-0.485
O=C(Nc1ccccc1)N1N=C(c2ccc(F)cc2)CC1c1ccc(F)cc1 (stereo unspecified)	-0.338
Cc1cc(C)n(C(=O)c2ccc(C)c(S(=O)(=O)N3CCCCC3)c2)n1	-0.353
COc1ccc(-c2cc3nc(C4CCN(C(=O)OC(C)(C)C)CC4)c(C(=O)O)cn3n2)cc1	-0.691
COc1ccc(-c2nc(CC(=O)O)cs2)cc1OC	-0.228
CC(C)(C)NC(=O)C(c1ccccn1)N(C(=O)C1CSC(=O)C1)c1ccc(F)cc1 (stereo unspecified)	-0.791
Cc1ccc(S(=O)(=O)NC(C(=O)Oc2cc3oc(=O)cc(C)c3cc2Cl)C(C)C)cc1 (stereo unspecified)	-0.124
Cc1ccc(-n2ncc3c(=O)[nH]c(SCC(=O)N4CCN(c5ccccc5)CC4)nc32)cc1	0.0413
Cc1ccc(C2NC(c3ccc(C)cc3)C([N+](=O)[O-])C(C)(C)C2[N+](=O)[O-])cc1 (stereo unspecified)	-0.18
Cc1ccc(N(CC(=O)Nc2ccc(S(=O)(=O)N3CCOCC3)cc2)S(C)(=O)=O)cc1C	-0.552
Cc1ccsc1/C=C/c1ccc2cccc(O)c2n1	-0.139
Cn1c(=O)n(CC(=O)Nc2ccccc2)c2ccccc21	0.064
COC(=O)c1ccccc1NC(=O)c1ccccc1NS(C)(=O)=O	-0.195
COC(=O)c1sc2cc(C(F)(F)F)cnc2c1-c1cccnc1	-0.0811
Cc1cccc(NC(=O)C(C)Oc2ccccc2C)n1 (stereo unspecified)	-0.61
O=C(O)CCCNS(=O)(=O)c1ccc(NCc2ccccc2)c(C(=O)O)c1	0.608
CC1CC(NC(=O)c2ncn[nH]2)CC(C)(C)C1 (stereo unspecified)	0.166
CCC1=NN(C(=O)CCc2ccccc2O)C(O)(C(F)(F)F)C1 (stereo unspecified)	-0.014
